From the BET-seq Pho4 binding data (Le et al. 2018)
Some of the results follow. The energies were worked out here from pooled read counts, against the library average; single values are noisy.

Biological target: T1, Pho4 (S. cerevisiae) (UniProt P07270)
T1 sequence: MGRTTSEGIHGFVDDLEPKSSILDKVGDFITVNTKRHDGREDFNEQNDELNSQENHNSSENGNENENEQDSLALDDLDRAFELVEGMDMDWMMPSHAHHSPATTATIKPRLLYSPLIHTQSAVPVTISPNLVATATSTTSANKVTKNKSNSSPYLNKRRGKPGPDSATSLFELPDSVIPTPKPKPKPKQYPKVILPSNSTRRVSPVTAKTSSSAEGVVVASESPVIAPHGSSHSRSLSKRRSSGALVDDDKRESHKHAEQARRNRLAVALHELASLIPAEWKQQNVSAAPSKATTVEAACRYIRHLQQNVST
Experiment: relative binding free energy (BET-seq); higher = weaker binding
Settings: reference: library average

| Sequence | relative binding free energy |
| --- | --- |
| TGTATCACGTGCTTTT | -0.07 kcal/mol |
| AGTTTCACGTGTTATT | 0.31 kcal/mol |
| TGTGACACGTGAACGT | 0.2 kcal/mol |
| TAGGGCACGTGGCATT | -0.1 kcal/mol |
| TTGCGCACGTGTTGGG | -0.04 kcal/mol |
| TAGTTCACGTGCCAGG | 0.24 kcal/mol |
| TGATACACGTGAGGGC | 0.43 kcal/mol |
| ATGTGCACGTGAGCTG | -0.1 kcal/mol |
| TGGGCCACGTGAGCGG | -0.01 kcal/mol |
| TTTTACACGTGGAAGG | 0.2 kcal/mol |
| GAGGTCACGTGGTACT | 0.19 kcal/mol |
| TCTGGCACGTGTATGA | -0.06 kcal/mol |
| GTTGGCACGTGGAGGT | -0.03 kcal/mol |
| AAGGTCACGTGGGGTA | -0.1 kcal/mol |
| AGGGTCACGTGGTCTT | 0.02 kcal/mol |
| TTGTCCACGTGTAGTT | 0.16 kcal/mol |
| TTATTCACGTGTTCTG | 0.27 kcal/mol |
| TTGAACACGTGATGAG | 0.09 kcal/mol |
| GGTCTCACGTGTCGTT | 0.25 kcal/mol |
| GGGGACACGTGCAGCG | -0.01 kcal/mol |
| GCATGCACGTGCGGTG | -0.1 kcal/mol |
| TAGGGCACGTGGAAAT | 0.02 kcal/mol |
| AGATTCACGTGATGGT | 0.35 kcal/mol |

| Sequence | relative binding free energy |
| --- | --- |
| AGGGTCACGTGAAGGA | 0.34 kcal/mol |
| TTAAACACGTGGGGCT | -0.12 kcal/mol |
| AGTGTCACGTGTAATG | 0.14 kcal/mol |
| TGTCTCACGTGGGGTT | 0.18 kcal/mol |
| CTTTTCACGTGGTTGT | 0.23 kcal/mol |
| TTTTCCACGTGGGAGA | -0.04 kcal/mol |
| GGGCTCACGTGATGTT | 0.29 kcal/mol |
| GTGTACACGTGTTTAG | 0.15 kcal/mol |
| CATGACACGTGTTAGT | -0.01 kcal/mol |
| GCGGACACGTGGGATG | -0.04 kcal/mol |
| CTTAACACGTGTGGTT | -0.03 kcal/mol |
| GGTGGCACGTGGAACG | 0.12 kcal/mol |
| CTGTTCACGTGTTGAA | 0.2 kcal/mol |
| GTAGACACGTGAGTAG | 0.1 kcal/mol |
| ATAAGCACGTGAAGGA | 0.25 kcal/mol |
| AAGTGCACGTGCGAGG | 0.01 kcal/mol |
| TGATTCACGTGATTTT | 0.3 kcal/mol |
| TCTTTCACGTGGGGCA | 0.16 kcal/mol |
| TGTATCACGTGTAGGA | 0.15 kcal/mol |
| TACGGCACGTGTAAGT | 0.01 kcal/mol |
| AGTGGCACGTGAATTG | 0.17 kcal/mol |
| TTAGGCACGTGGCCAG | -0.14 kcal/mol |
| ATAAGCACGTGTGTTT | -0.12 kcal/mol |

| Sequence | relative binding free energy |
| --- | --- |
| GGTTCCACGTGTTGAG | 0.15 kcal/mol |
| GGCTCCACGTGGTGGT | 0.04 kcal/mol |
| GGCGTCACGTGCTGGT | 0.02 kcal/mol |
| AGGGCCACGTGGAATG | -0.1 kcal/mol |
| GTTAGCACGTGGGCGA | 0 kcal/mol |
| GTTAGCACGTGCTTTG | -0.06 kcal/mol |
| TTTAGCACGTGTTTTA | 0.07 kcal/mol |
| GGGAACACGTGCGGGT | 0.02 kcal/mol |
| TTTGTCACGTGGTGGC | 0.26 kcal/mol |
| TTCGACACGTGTTATT | -0.08 kcal/mol |
| GCTGGCACGTGGATTG | 0.05 kcal/mol |
| TAGGGCACGTGGGCCG | -0.26 kcal/mol |
| TAATTCACGTGATAGA | 0.12 kcal/mol |
| TGATTCACGTGGTCGT | 0.22 kcal/mol |
| GGTTGCACGTGGTTTG | 0.06 kcal/mol |
| CGATACACGTGTGTGG | 0.08 kcal/mol |
| GTTAGCACGTGGGGTG | -0.17 kcal/mol |
| AAATTCACGTGTGTAA | 0.29 kcal/mol |
| AGTTGCACGTGACTGG | -0.01 kcal/mol |
| TGGAGCACGTGTAGGG | -0.04 kcal/mol |
| TTCTGCACGTGTAAAG | 0.2 kcal/mol |
| TAAAACACGTGGTTTA | -0.08 kcal/mol |
| TGTCACACGTGTTGTG | 0.05 kcal/mol |

| Sequence | relative binding free energy |
| --- | --- |
| GTGTGCACGTGCGAAT | -0.14 kcal/mol |
| AAGTTCACGTGTTATT | 0.29 kcal/mol |
| GAGGACACGTGTTTAG | 0.07 kcal/mol |
| GCGTGCACGTGAGTAG | 0.36 kcal/mol |
| CTTGTCACGTGTGGGC | 0.17 kcal/mol |
| CGTGGCACGTGGCAAG | -0.21 kcal/mol |
| ATTAGCACGTGCGTAG | -0.12 kcal/mol |
| GTGCTCACGTGAAGGG | 0.41 kcal/mol |
| ATATTCACGTGGAAAG | 0.19 kcal/mol |
| AACGTCACGTGTGTAG | 0.05 kcal/mol |
| TAGATCACGTGATTGT | 0.27 kcal/mol |
| TTCATCACGTGTTTAG | 0.15 kcal/mol |
| TTTATCACGTGACTGG | 0.32 kcal/mol |
| TATATCACGTGGTCGT | 0 kcal/mol |
| GGAGCCACGTGTAGGG | -0.07 kcal/mol |
| TGTTGCACGTGGAGTG | 0.1 kcal/mol |
| TTCTGCACGTGTGGCT | 0.15 kcal/mol |
| TAATGCACGTGACGGG | 0.17 kcal/mol |
| ATGGGCACGTGAAGCG | 0.16 kcal/mol |
| GATGCCACGTGGGGTA | -0.2 kcal/mol |
| GTTAGCACGTGTTTTG | 0.11 kcal/mol |
| TTGAGCACGTGTACTT | -0.01 kcal/mol |
| GGTTTCACGTGTCATA | 0.23 kcal/mol |

| Sequence | relative binding free energy |
| --- | --- |
| TATGTCACGTGTAGAA | 0.13 kcal/mol |
| TTGTCCACGTGATATG | 0.12 kcal/mol |
| GGTTGCACGTGATATT | 0.08 kcal/mol |
| CACGTCACGTGGTGGT | -0.01 kcal/mol |
| GGTGACACGTGGTGTG | -0.04 kcal/mol |
| TACGACACGTGTTGTA | 0.09 kcal/mol |
| AGCAGCACGTGGGTGG | -0.16 kcal/mol |
| CTTGACACGTGAGTGG | 0.17 kcal/mol |
| ATAAACACGTGGTGGC | -0.04 kcal/mol |
| TTTCCCACGTGTGTAT | 0.12 kcal/mol |
| ATGTTCACGTGCGGGT | 0.26 kcal/mol |
| TTCTACACGTGTTTGA | 0.06 kcal/mol |
| TGCTCCACGTGTGTTG | -0.05 kcal/mol |
| ATGTACACGTGTTGTC | 0.01 kcal/mol |
| GATTTCACGTGGGTCT | 0.17 kcal/mol |
| GTAGGCACGTGGTTTT | -0.01 kcal/mol |
| AGGATCACGTGGGTCA | 0 kcal/mol |
| TGGCGCACGTGAGTTG | 0.16 kcal/mol |
| AATTTCACGTGATTGC | 0.31 kcal/mol |
| TGTTACACGTGTCGAG | 0.14 kcal/mol |
| GTTTTCACGTGCGAGG | 0.39 kcal/mol |
| GTGTACACGTGGAGAG | 0.05 kcal/mol |
| TTAGACACGTGGAGTC | 0.02 kcal/mol |
